The source gives no read counts; variants with many changes may rest on few reads.
B1: LINE1-mini (parent)
chain: GGCAGAGCUCAACACAGCGUGGCAAAGUGGCUGUGGCUAGACUGCC

Variants of: B1
Test: self-cleavage, relative activity (ratio to wild type); higher = more cleavage; in vitro, sequencing; the parent is a self-cleaving ribozyme

Variant | self-cleavage
GGCACUGCUCAACACAGCGUGGCAAUGUGGCUGUGGCUAGACUGCC | 0.06
GGCAGAGCACAACACAGCGUGGCAAAUUAGCUGUGGCUAGACUGCC | 0.06
GGCACUGCUCAACACAGCGUCGCAAAGUGGCUGUAGCUGGACUGCC | 0.06
GGCAGAGCACAUCACAGCGUGCCAAAGUGUCUGUGGCUAGACUGCC | 0.07
GGCAGAACUCAACCCGGCGUGGCAAAGUGGCUGUGGCGAUACUGCC | 0.09
GGCAGAGCUCCACACAGCGUGUCAAUGUGUCUGUGGCUAGACUGAC | 0.01
GGCAGAGCUCAACACAGCUUGACAAACUGGCUGUGGCUAGACUGCC | 0.6
GGCAGAGCUCAACACAGCGGGACAAGGUGGCUGUGGCUAGACUGCC | 0.27
GGCAGAGCUGAACACAGCGAGGUAAAGUGGCUUUGGCUAGACCGAC | 0.01
GGCAGAGCACUACACAGCGUGACAAAGUGGCUGUGGCUAGACUGCC | 0
GGCAGAGCUCAACACAGCAUAGCAAAGUGUCUGUGGCUAGACUGCC | 1.37
GGCAGGGGUCAACACAGCGUGGCAAAGUGGCUGUGGGUAGACGGCC | 0.08
GGCAGAGCUCAACACAGCGUUGCAAGGUUGCUGUGGCUAGACUGCC | 0.26
GGCAGAGCGCAACACAGCGAGGCUAAGUGGCUGUGUCUAGACUGCC | 0
GGCUGAGCUGAACACAGAGUGGCAAACUGGCUGAGGCUAGACUGCC | 0.03
GGCAGAGCACAACAAAGCCUGGCAAAGUGGCUGUGGCUAGACUGCC | 0.57
AGCAGAGCUCCACACAGCGUGGCCAAGUGGCUGUGGCUAGAUUGCC | 0.02
GGCAGAGCUCAACACACCGUGGCACAGUGGCUGUGGCUAGACUUCC | 0
GGCAGAGCUAAACACAGCGUGGCAAAGUGGCUUUGGCUAGACUGGC | 0.01
GGCAGAGCUCAACACAGAGUAGCGAAGUGGCUGUGGCUGGACUGCC | 0.09
GGCAGAGCUCAACACAGCGUGGCAAACUGGCUGUGGCCAGACUGUC | 0.1
GGCAGAACUCAACACAGCGUGGCAAAGUGGCUGUGGCGAGCCUGCC | 0
GGCAGAGCUCCACACAGCGUGGCAAAGUGGCUGCGGCUAGACUGCG | 0.02

Variant | self-cleavage
GGCGGAGCUCAACAAAGCGUGGCAAAGUGGCUGUGGCUAGAUUGCC | 0.35
GGCAGAGCUCAACACAGAGUGGCAAAGUGUCUGUGGCUUGACUGCC | 0.54
GGCAGAGCUCAACACAGUGUGCCAAAUUGGCUGUGGCUAGACUGCC | 0.23
GGCAGAGCUCAGCACAGCGUGACAAAGUGGCUGUGGCUAGGCUGCC | 0.01
GGCAGAGCUCAACACCGCGGGGCAAAGUGGCUGUGGUUAGAAUGCC | 0.13
GUCAGAGAUCAACACAGCGUGGCAAAGUGGCUGUGGCCAGACUGCC | 0.04
GGCAGAGCUCAACACAGCGUGGCAAAGUGCUUUUGGCUAGACUGCG | 0.03
GGAAGAGCUCAACUCGGAGUGGCAAAGUGGCUGUGGCUAGACUUCC | 0.11
GGCAGAGCUCAACACAGCGUGGCAAAAUGGCUGUUGCUACACUGUC | 0
GGCAGAGUUCAACCCAGCGUGGCUAAGUGGCUGUGGCUAGACUGCC | 0.42
GGCAGAUCUAAACACAGCGUGGCAAACUGGCUGUGGCUAGACUCCC | 0.01
GGCAGAGAUCAACACAGCGUGGCAAAGUCGCUGUGGCUAGACUGGC | 0.01
GGCAGAGCUCAACACAGCGUGCCAAAGAGGAUGUGGCUAGACUGUC | 0.1
GGCUGAGCACAACACAGCGUGGUAAAGUGGCUGUGGCUAGACUGCC | 0.07
GGCAGAUCUCAACACAACGUGGCAAAGUGGCUUUGGCUAGACUGCC | 0.68
GGCAGAGCUCAACAAAGCGUUGCAAAGUGGCUGUGGCUAGACUACC | 0
GGCAGAGCUUAACUCAGAGUGUCCAAGUGACUGUGGCUAGACUACC | 0.03
GGUACAGCUAAAUACAGCGUGGCAGAGUGGCUGUGGCUAGACUACC | 0.02
GGUAGAGCUCAAAACAGUGUGGCAAAGUGGCUGUGGCUAGACUGCA | 0.1
GGCAGAGCUCAACACAUCUUGCGCAAGUGGCUGUGGCUAGACUGCC | 0.38
GGCAGAGCUCAACACAGCGUGGCAUAGUGGCUGUGACUAGAAUGCC | 0.26
GGCAGAACUCAACAGAGCGUGGCAAAGUGGAUGUGGCUAGAAUGCC | 0.06
GGCAGAGCUUAGCACAGCGUGGCAAAGUGGCCGUGGCUAGACUGCC | 0.02

Variant | self-cleavage
GGCAAAGCUCAACUCAGCGCGGCAAAGUGGCUGUGGCUAUACUGCC | 0.16
GGCAGAGCUCAACACAGCGUGGCAAAAUGGUUGUGGCUAUACUGCC | 0.26
GGCAGAGCUCAACUCAGCGUGGCAAAGUGGCUGUGCCGAGACUGCC | 0.08
GGCGGCGCUCAACACAACGUGGCAAAGUGGGUGUGGCUAGACUGCC | 0.01
GGCAGAGCUCAACACAGCGCGGCAAAGUCGCUGUGGCGAGACUGCC | 0.01
GCCAGAGCUCAACACAGCGUGGCAAAAUUGCUGUGGAUAGACUGCC | 0.01
GGCAGAGCUCAACACGGCGUGGCAAAGGGGCUGUGACUUGACAACC | 0.27
GGCAGAGCUGAACACAGCGUGGCAUAGUGGCGGUGCUUAGACUGCC | 0.02
UGCAAAGCGCAACACAGCGUGGCAAAGCGGCUGUGGCUAGACUGCC | 0.03
GGCAGAGCUCAACACAGAGUGGUAAGGUGGCUGUGGCUAGACUGCA | 0.04
AGCAGCGCUCAACACAGCGUUGCAAAGUGGCUGCGGCUAGACUGCC | 0.07
GGCAGAGCUUAAGACAGAGUGGUAAAGUGGCUGUGGCUAGACUGCC | 0.06
GGCGGGGCUCAACACAGGGUGGCAAAUUGGCUGUGGCUAGACUGCC | 0.03
GGCACAGCUCACCACUGCGUGGCAAAGGGGCAGUGGCUAGACUGUC | 0.02
GGCAGAGUACAACAAAGCGUGGCAAAGUGGUUGUGGCUAGACUGCC | 0.52
GGCAGAGCUCAACACAGCGUAUCAAAGGGGCUGUGGCUAGACUGCC | 0.57
GGCGGAGCUCAUCACAGCGUGGCAACGUGGCUGUGGCUAGACUGCC | 0.13
GUCAGAGUUCAACACAGCGUGGCAAAGUGGGUGUGGCUAGACUGCC | 0.28
GGCAGAGAUCAACACAACGUGGCAAAGUGGAUGUGUCUAGACUGCC | 0.15
GCCAUAGCUCAACACAGCGUGGCAAAGUGGCUGUGGCUAGACUUCC | 0.1
GGCAGAGCUCAAAACAGUGUGUCAAAGUGGCUGUGGCUAGACUGCC | 0.11
GGCGGAGCACAAUAGAGCGUGGCAAAGUGGCUGUGGCUAGACUCCC | 0.02
GACAGAGCUCAACACAGCGUGCCAAAGUGUCUGUGGCUAGACUGCC | 0.79

Variant | self-cleavage
GACAGAUCUCAUCACAGCGUGGCAAAGUGGCUGUGACUAGACUGCC | 0.02
GGCAGAGCUCAACACAGCGUGGCUAAGUGGCUGUGGGUAGACUACC | 0.04
GGCAGAGCUCAACACCGCGUGGCAUAGUGGCGGUGGCUAGACUUCC | 0.11
GGCAGAGCUCAACACAGCGUGGCAAAGUGACUGUGGAUAGACUACC | 0.06
GGCAGAGUUCAACACAGCGUGGCAACGUGACUGUGGCUAGACUGCC | 0.69
AGCAGAGCUAAACACAGCGUGACAAAGUGGCUGUGGCUAGACUGCC | 0.04
GGCAGAGCUUAACACAUCGUGGCAAAGUGGCUGUGGUUAGACUGCC | 0.12
GGCAGGGCUCAACACAGCGUGGCAAAGAGGCAGUGGCUAGAGUGCC | 0.06
GGCACUGCUGAACACAUCGUGGCAAAGUGACUGUGCCUAGACUGCC | 0.02
GGCAGAGUUCAACAGUGCGUGGCAAAGUGGCUGUGGCUAGACUGCC | 0.09
GGCAGAGCUCGACACAGCUUGGCAAAGUGGUUGUGGCAAGACAGCC | 0.01
UGCAGAGCUCGACACAGCGUGGCAAAGUGGCUGUGGCUAGAUUGCC | 0.04
GGCAGAGCUCUACACCGCGUGGCGAAGUGGCUGUGGCUAGACUGCA | 0.02
GUCAGAGAUCAACACACAGUGGCAAAGUGGCUGUGGCUAGACUGCC | 0.03
GGCAGAGCUCAACACACCGUGGCAAAGUGACGGUGGCUAGACUGCC | 0.06
GGCAGAGCUCACCACAGCAUGGCAAAAUGGUUGUGACUACACUGCC | 0.02
GGCAGAGCUCAACACAGCGUGGUAAAGUCUCUGUGCCUAGACUGCC | 0.06
GGCAGAGCUCAAACCAGCGUGGCAAAGUGGCUUUGGCUAGACUGCC | 0.03
GGCAGAGCUCAACACAGCGGGGCAUAGUGGCUGUGGCUGGUCUGCC | 0.02
GGCAGAGCUCACAAAAGCGUGGCAAAGUGGCUGUGGCUAGACUGCC | 0.04
GACACAGCUCAACACAGCGGGGCGAAGUGGCAGUGGCUAGACUGCC | 0.06
UGUUGAGCUCAACACAGCGUGGCAAAGUGGCUGCGGCUAGACUGCC | 0.02
GGCAGAGCUCAACACAGCGUGGCAUAGUGGCUGUGGCUGGACUGCU | 0.04

Variant | self-cleavage
GGCAGCGGUGAACACAGCUUGGCAAAGUGGCUGUGGCUAGACUGCC | 0.05
GGCAGAGAUCAACACAGCGUGGGGAAGUGGCUGUGGCUAGACUGCC | 0.22
GGCCGAGCUAAAAACAGCGUGGCAAUGUGGCUGAGGCUAGACUGCC | 0.02
GCCAGAGCUCAACGCAGCGUGGCAAAGUGGCUGUAGUUAGACUGCC | 0.06
GGCAGAGCUCUACCCAGCGUGGCAAAGUCACUGUGGCUUGACUGCC | 0.02
GGAACAGCUAAACACAGCGUGGCAAAGUGGCUGUGGCAAGACCGCC | 0.03
GGCAGAGCUCAACACAGCGUGGCAACGUGGCUGUGACUAGACAGCC | 0.05
GGCAGAGAUCAACACAGCGUUGCAAAGGGGCUGUGGGUAGACUGCC | 0.07
GGCAGAUCCCAACAUAGCGUGGCAAAGUUGCUGUGGCUAGACUGCC | 0.06
GGCAGAGCUCAACAUAGCGUGGCACAGUGGCCGUGGCUAGACUGCC | 0.06
GGCAGAGCUUAACACAGCGUGUCAAAUUGGCUGUGGCUAGACUGCC | 0.2
GGCAGAGUUUAACACAUCGUGGCAAAGGGGCUAUGGCUAGACUGCC | 0.04
GGCAGAGCUCACCACAGCGCGCCAAAGUGGCUGUGGCUAGACUGCC | 0
GGCAGAGCAAAAGAAAGCGUGGCAAAGUGUCUGUGGCUCUACUGCC | 0.02
GGCAGAGCUUAACACAUCGUGGCAAAGUGGUUGUGGCUAGACUGCC | 0.24
GGCAGAGUUCAACACAGCGUCGUGGAGUGGCUGUGGCUAGACUGCU | 0.26
GGCAGAGCUCAACAUAGCGUUGCAAAGUGGCUGUGGCUAAACUGCC | 0.14
GGAUGAGCUCAACACAGCGUGGCAAAGUGGCUGUGGCUAGUCUGGC | 0.45
GGCAGAGCUCAACAGAGCGUGGGAAAGUGGCUGUGGCUACCCUGCC | 0.02
GGCAGAGGUCAACACAGCGUGGCAAAAUGGCUGUGGCUACACUGCA | 0.01

Reference: the RNAGym collection of RNA variant scans (doi:10.7554/elife.90254)
